Over roughly 4,500 sequences, “median log2 fold change of GCK-ALFA target abundance (FLAG IP / Myc IP barcode read proportion)” has its median near 0.078; the lowest 2% begin near -0.6. The list shows a part of the results.
B1: GBRAP_160_4686 (protein)
chain: SSKVEKAKKFIEEEFKEVVEYHEEMTKEELAALVRVAFGEIILELEELGLLTDELGKLIEEKEKEIVDYILKNPNITKEELEKKLEEAKKEIVKKLEEIS
B2: GBRAP_128_3231 (protein)
chain: MSPELRAKVDELIETIITGDVEETRAATRELVALMGEVSLEEAEEIAERLIAAIPKLTAEKLDAVADALRENAGTLSPEKAALAYEVEIEALEQAEELEE
B3: GBRAP_128_3403 (protein)
chain: SEEEKVAEAERLIEAIVAADVETARRLARELMELFGTLSLEAQERVAEAVEAALPRLTAEKLDVLADVLREQRPRFTPEKQAILADWEVAALNAAEEKEE
B4: GBRAP_125_2986 (protein)
chain: EEEELLEDLREIFKALGLSEEDAEEAVKLAREFSLKQTLYALMAALGAEEVADAVAKLTEEQAKEVVKEASEYIKKNPNITPEEVVELLLELAKKQLAKA
B5: GBRAP_78_6600 (protein)
chain: EVEELIDKALEKLNEASRIAKKLDPETQQEVLDKLVDAASDLVESEEPEGRLEHLKEALKHVKEALKIVEKSDSESAEELKKVLEEAKKLLEEAIKLLKE
B6: GBRAP_128_3154 (protein)
chain: RVEEVRERTRELLERIAEGPLEEVPALARELADLIREADEEAREAILEVFEELVPKLSPEKLDVVADVLREAMPELDPLGREVAAGMIVLADNERLEQEE
B7: GBRAP_11_2856 (protein)
chain: KKEKLEEIAELAEEAIKLLEKLLEEGVDNEELRKEIREKLEELLELVKKYLDEADVKLAEDALEDFEESLEDPENAVQHVQNALAHLRVLLGNVLLRIDE
B8: GBRAP_11_2644 (protein)
chain: KKEKLEKAAKLAKEAAEAVKELIEKGVDNKELQEKAEKLLEELKKLVEKELSEAHKTDVEVALELWEEFKKDKENKLEYAEQLLAALRVLEGNFLLEADE
B9: GBRAP_128_3492 (protein)
chain: SMEEAVARTRELMRAIGEADPEEARRLTRELVALMASVDPETAEAMADEAIELLPELSAEALEVLADTLAELRPSLDPYTANLVADIQVEALNEREELEE
B10: GBRAP_52_6175 (protein)
chain: MEERAKAMADAILAAIKAGKKEEVKALIEKAAKEFNDEEIELMWDHIAAAVPGLSPADQERVVDAAIEAEDIFIAAGHDENLASYNEARVAGAAYAALQA
B11: GBRAP_160_4726 (protein)
chain: SERIREFVERFEERFLETIEATEDESKEEQAAMFRGTAGEILMEALEEPFLSDEMEDVVAEELDALVAELEANWDASKEEKKAIVREHMERLRERLLALA
B12: GBRAP_26_5458 (protein)
chain: VEEKIDEARDNLEKLAKEVLSPEKAAAVQTEISTESWELEEVVEEHPNDLEKIEKKIKEFEEDVFKTLKELDVPEEEFKKLKEKIEEESEKLKEEAKKKV
B13: GBRAP_52_5900 (protein)
chain: MEEKAKKMAEEVVAAIKAGDFEKAVELIVKVLLEMSSEEVAIFADALRELLKGQSLEEAEKAVKAAEEAEKRALAKGADEDDVTLVVDAAETALVEVELK
B14: GBRAP_43_5749 (protein)
chain: DEELVAGAVEFTLLAAEDPSISPETVLRAFKATLDLIADTGVRLEEELVAAAAAVAKRLSPEQVEALIEHIKELAAASPEVKETFEAAEEVLRAELAKRR
B15: GBRAP_80_6862 (protein)
chain: YEEEVQEALELAKSISEELAELFEELVKELKELGVSEEDIARIARIIKDILELDPELALEALEEMVKEAKEYLKKGKGEEALVVVLGIAGEALMEAEEKE
B16: GBRAP_125_3076 (protein)
chain: PTEEQLEDLALLLRALGFSEDDVAEAVAIAAASSLRQTLVAIMLAEGAEEAADLIEKLTEEQAAEVLRRVAAYLRANPGLSKEEVIAKVKEVAEEALAAA
B17: GBRAP_14_3783 (protein)
chain: MEAIEKAAEESFKELEELLTEIVPEKAEEIRELVEESLKRLKELIKKTGDPVKAAEEVFKELEARVAELTADLPAEKRARALGAVRTEGANLIEEIEELT
B18: GBRAP_160_4364 (protein)
chain: SEELKKLAKEIEELMKEFEEEAKDLSPEEARILGLGVLAEIAALIESNEAVSDEVEDEIMKIIDEAEKEIRENKDASPEEIVEIVKKAVEKIIELIKKEA
B19: GBRAP_166_4929 (protein)
chain: AKEEAVAATREALRATLAAARADPSMTPAQATVALADTLAERLEEIDDEETKLAVVREGLELAKEAGLDPRRLATLTASLAGFDDETRERIDEITEEILA

Target: GABARAP, O95166
Sequence (O95166 whole entry, the tested form may be a part): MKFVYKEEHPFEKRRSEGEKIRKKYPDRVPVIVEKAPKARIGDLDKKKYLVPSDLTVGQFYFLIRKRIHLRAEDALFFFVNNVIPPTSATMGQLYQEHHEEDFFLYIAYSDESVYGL
Assay: median log2 fold change of GCK-ALFA target abundance (FLAG IP / Myc IP barcode read proportion) (log2 ratio); each designed protein is fused to an ALFA-tag nanobody in HEK293 cells to bring the named protein to FLAG-tagged glucokinase (GCK); Myc marks an untargeted standard; higher = target protein stabilised (more abundant)
Details: target protein: 3xFLAG-MCP-GCK-ALFA reporter; HEK293 landing pad (RPLP)
In short: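 Sequencing of reverse-transcribed, amplified circular RNA barcodes from anti-FLAG and anti-Myc immunoprecipitates provided the readout for an ALFA-nanobody-fused binder library recombined into HEK293 landing-pad cells. Those cells were induced with 2 μg mL^−1 doxycycline, transfected with a plasmid expressing a FLAG-tagged target and a Myc-tagged standard, and lysed after 48 h. Target abundance is the per-binder median log2 ratio of FLAG to Myc barcode read proportions. Only barcodes at a proportion of ≥10^−7 in both replicates and binders with ≥3 barcodes per replicate were kept, with a 10^−6 pseudocount added before the two replicates were pooled.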

Row | Binder | median log2 fold change
1 | B1 | -0.148
2 | B2 | 0.146
3 | B3 | 0.000634
4 | B4 | -0.643
5 | B5 | 0.474
6 | B6 | 0.23
7 | B7 | 0.113
8 | B8 | 0.459
9 | B9 | -0.0763
10 | B10 | 0.0494
11 | B11 | 0.0951
12 | B12 | -0.0387
13 | B13 | 0.172
14 | B14 | 0.142
15 | B15 | 0.161
16 | B16 | 0.112
17 | B17 | 0.292
18 | B18 | -0.169
19 | B19 | 0.327
